# In the supplement of paper PMC4723716:
# ± gives the uncertainty stated by the source. The full ranking holds about 9,900 compounds; the median of “viability index relative to DMSO control” is about 1, and the lowest 2% start at about 0.85. Some of the results follow.
# Tested on: Plasmodium falciparum NF54 stage V gametocytes
# Experiment: viability index relative to DMSO control (fraction); higher = less gametocyte killing
# Settings: 2.5 µM, library set: Broad Institute DOS, incubation time: 72 h
# Summary of the method: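 Compound at 2.5 µM was incubated for 72 hr at 37°C under low oxygen with P. falciparum NF54 stage V gametocytes (0.75% gametocytemia, 1.25% hematocrit, 10 µl, serum-free screening medium) in 1,536-well plates. Staining used 3 µl of 2.5 µM MitoTracker Red CMXRos plus 0.13% saponin for one to two hours, and red particles of 20–70 µm2 were counted in one imaged field per well. Each viability index is that count relative to the plate mean of solvent-only wells.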
row,SMILES,viability index
1,O=C(C[C@@H]1CC[C@H]2[C@@H](COC[C@H](O)CN2C(=O)Nc2ccc(Cl)cc2)O1)NCC1CCCCC1,1.08 ± 0.072
2,CCS(=O)(=O)N1CC(=O)N2[C@H](CO)[C@@H](c3ccc(-c4cccc(F)c4)cc3)[C@H]2C1,1.06 ± 0.056
3,C[C@H](CO)N1C[C@H](C)[C@@H](CN(C)CC2CCCCC2)OCCCC[C@H](C)Oc2ccc(NS(C)(=O)=O)cc2C1=O,0.976 ± 0.089
4,C[C@H]1CN([C@@H](C)CO)C(=O)CCCn2nncc2CO[C@@H]1CN(C)S(=O)(=O)c1cn(C)cn1,1.055 ± 0.006
5,O=C(Nc1ccc(F)cc1)N1C[C@H]2[C@@H](c3ccccc31)[C@H](CO)N2Cc1ccccc1Cl,1.07 ± 0.026
6,CS(=O)(=O)N1CC(=O)N2[C@H](C1)[C@@H](c1ccc(C#Cc3ccc(F)cc3)cc1)[C@@H]2CO,0.9545 ± 0.0077
7,C[C@@H]1CN([C@@H](C)CO)C(=O)c2cc(-c3cccc(C#N)c3)cnc2O[C@H]1CN(C)C(=O)C1CCOCC1,0.983 ± 0.016
8,CN(C)CCCNC(=O)[C@@H]1[C@@H](CO)[C@@H]2Cn3c(ccc(-c4cccnc4)c3=O)[C@H]1N2C(=O)CC1CC1,1.038 ± 0.0047
9,O=C(C[C@H]1C[C@@H]2c3cc(NC(=O)Nc4ccccc4F)ccc3O[C@@H]2[C@@H](CO)O1)NCc1ccccn1,0.991 ± 0.041
10,C[C@@H]1CN([C@H](C)CO)C(=O)CCCn2nncc2CO[C@H]1CN(C)S(=O)(=O)c1ccc(Oc2ccccc2)nc1,1.05 ± 0.032
11,C[C@H]1CN([C@@H](C)CO)S(=O)(=O)c2ccc(C#Cc3cccc(F)c3)cc2O[C@@H]1CN(C)S(=O)(=O)c1cn(C)cn1,0.985 ± 0.049
12,COc1ccc(S(=O)(=O)N(C)C[C@@H]2Oc3ccc(NC(=O)Nc4ccc(C(F)(F)F)cc4)cc3C(=O)N([C@H](C)CO)C[C@H]2C)cc1,0.957 ± 0.08
13,C[C@H]1CCCCO[C@H](CN(C)S(=O)(=O)c2cn(C)cn2)[C@@H](C)CN([C@@H](C)CO)C(=O)c2cc(NC(=O)Nc3cccc4ccccc34)ccc2O1,1 ± 0.13
14,N#Cc1ccc(-c2ccc([C@H]3[C@@H]4CN(S(=O)(=O)c5ccc(F)cc5)C[C@H]3N4)cc2)cc1,0.977 ± 0.013
15,CC(=O)N1[C@@H](CO)[C@H](c2ccccc2)[C@@H]1CN(C)S(=O)(=O)c1ccccc1,1.01 ± 0.019
16,O=C(Nc1ccc(F)cc1)N1CC(=O)N2[C@H](C1)[C@H](c1ccc(C3=CCCC3)cc1)[C@@H]2CO,1.06 ± 0.081
17,N#C[C@@H]1[C@@H](c2ccccc2)[C@H](CO)N1C(=O)c1ccc2c(c1)OCO2,1.09 ± 0.028
18,COc1ccc2c3c([C@H](CO)NC[C@]33CCN(CC3)C(=O)Nc3ccc4OCOc4c3)n(C)c2c1,1 ± 0.034
19,Cc1ccccc1S(=O)(=O)Nc1ccc2c(c1)C(=O)N(C)[C@@H]1CC[C@H](CC(=O)O)O[C@@H]1CO2,1.01 ± 0.033
20,COc1ccccc1CNC(=O)C[C@H]1CC[C@H]2[C@@H](COC[C@H](O)CN2Cc2ccc3c(c2)OCO3)O1,1.0893 ± 0.001
21,O=C(C[C@@H]1C[C@@H]2c3cc(NC(=O)C4CCC4)ccc3O[C@@H]2[C@@H](CO)O1)NC1CCCC1,1.08 ± 0.011
22,CO[C@@H]1CN(C)C(=O)c2cc(NC(=O)NC3CCCCC3)ccc2OC[C@@H](C)N(CC2CCOCC2)C[C@@H]1C,1.056 ± 0.0027
23,O=C1N[C@H](Cc2ccccc2)COCc2cn(nn2)CC[C@@H]1Cc1cccc(F)c1,0.98 ± 0.097
24,CO[C@H]1CC[C@H]2CCOc3ccc(C#N)cc3C(=O)N(C)[C@@H](C)C(=O)N(C)C[C@H]1O2,1.087 ± 0.0079

row,SMILES,viability index
1,CN1CCN(C(=O)C[C@@H]2C[C@H]3c4cc(NS(C)(=O)=O)ccc4O[C@H]3[C@@H](CO)O2)CC1,0.964 ± 0.023
2,COc1ccccc1C#Cc1ccc([C@H]2[C@H](C#N)N(C(=O)C3CCC3)[C@H]2CO)cc1,1.02 ± 0.025
3,O=C(C1CCOCC1)N1CC(=O)N2[C@@H](CO)[C@H](c3ccc(-c4cccnc4)cc3)[C@@H]2C1,0.988 ± 0.069
4,Cc1noc(C)c1S(=O)(=O)Nc1ccc2c(c1)C(=O)N([C@@H](C)CO)C[C@H](C)[C@H](CN(C)Cc1ccc(C(=O)O)cc1)OCCCC[C@@H](C)O2,1.1 ± 0.018
5,COc1ccc(-c2cn(CC[C@@H]3CC[C@@H](NC(=O)c4cnccn4)[C@@H](CO)O3)nn2)cc1,1.18 ± 0.013
6,CC(C)NC(=O)N(C)C[C@H]1Oc2c(NS(=O)(=O)c3cccs3)cccc2C(=O)N([C@H](C)CO)C[C@H]1C,0.999 ± 0.042
7,C[C@@H]1CN([C@H](C)CO)C(=O)c2cc(N(C)C)ccc2O[C@@H](C)CCCCO[C@H]1CN(C)Cc1ccc(C(=O)O)cc1,1.13 ± 0.074
8,CO[C@@H]1CN(C)C(=O)c2cc(NC(C)=O)ccc2OC[C@@H](C)N(Cc2ccncc2)C[C@@H]1C,0.985 ± 0.088
9,O=C(C[C@@H]1CC[C@@H](NC(=O)C2CC2)[C@H](CO)O1)Nc1ccccc1,0.897 ± 0.16
10,O=C(c1ccccc1F)N1C[C@H]2[C@@H](c3ccccc31)[C@@H](CO)N2Cc1ccc2c(c1)OCO2,1.07 ± 0.057
11,O=C(NC[C@@H]1[C@H](c2ccccc2)[C@H](CO)N1C(=O)C1CCC1)NC1CCCC1,1.02 ± 0.031
12,CCCNC(=O)N(C)C[C@@H]1Oc2cc(C#C[C@@H](C)O)ccc2S(=O)(=O)N([C@@H](C)CO)C[C@@H]1C,0.965 ± 0.067
13,C[C@@H]1CN([C@@H](C)CO)C(=O)c2ccccc2-c2ccccc2CO[C@@H]1CN(C)C(=O)CCC(F)(F)F,1.04 ± 0.052
14,O=C(C1CC1)N1C[C@H]2[C@@H](c3ccccc31)[C@H](CO)N2C(=O)c1ccccc1,1.01 ± 0.066
15,CO[C@H](CN(C)Cc1ccc2c(c1)OCO2)[C@@H](C)CN(C(=O)Nc1ccc(F)cc1)[C@H](C)CO,1.07 ± 0.022
16,O=C(C[C@H]1CC[C@@H](NC(=O)c2ccc(F)cc2)[C@@H](CO)O1)NCCc1ccccc1,1.14 ± 0.051
17,O=C(c1cc2c(c(-c3cccc(-c4ccc(F)cc4)c3)n1)[C@@H](CCO)N(C(=O)c1ccc3c(c1)OCO3)C2)N1CCOCC1,1.04 ± 0.011
18,C[C@H]1CCCCO[C@H](CN(C)C(=O)c2ccncc2)[C@@H](C)CN([C@@H](C)CO)C(=O)c2cc(NS(=O)(=O)c3cccs3)ccc2O1,1.15 ± 0.11
19,CCCC(=O)Nc1ccc2c(c1)C(=O)N(C)[C@@H]1CC[C@H](CC(=O)N3CCCCC3)O[C@@H]1CO2,1.1 ± 0.03
20,CCS(=O)(=O)NCC[C@H]1CC[C@H](NC(=O)Nc2cc(Cl)cc(Cl)c2)[C@H](CO)O1,1.08 ± 0.037
21,COc1ccc2c3c([nH]c2c1)[C@@H](CO)N(Cc1ccc(Cl)cc1)C[C@]31CN(C1)S(C)(=O)=O,0.931 ± 0.095
22,COc1ccc(S(=O)(=O)Nc2ccc3c(c2)C(=O)N([C@@H](C)CO)C[C@H](C)[C@H](CN(C)S(=O)(=O)c2ccc(Cl)cc2)OCCCC[C@@H](C)O3)cc1,0.953 ± 0.064
23,CCCNC(=O)N1[C@H](CO)[C@H](c2ccccc2C2=CCCCC2)[C@@H]1C#N,1.157 ± 0.0063
24,Fc1cccc(CN2C[C@@H]3N[C@H](C2)[C@H]3c2ccc(/C=C/c3ccccc3)cc2)c1,0.99 ± 0.017

row,SMILES,viability index
1,CCS(=O)(=O)N1CC2(C1)[C@@H](c1ccccc1)[C@@H](CO)N2C(=O)c1ccccc1,1.13 ± 0.066
2,CC[C@@H]1C/C=C/C[C@@H](C)Oc2ccccc2C(=O)N(C)[C@@H](C)C(=O)N1.CC[C@@H]1C/C=C\C[C@@H](C)Oc2ccccc2C(=O)N(C)[C@@H](C)C(=O)N1,1.025 ± 0.0088
3,COc1ccc(NC(=O)N2CC(=O)N3[C@@H](CO)[C@@H](c4ccc(Br)cc4)[C@@H]3C2)cc1,1.01 ± 0.11
4,C[C@@H]1CN([C@@H](C)CO)C(=O)c2c(c3ccccc3n2C)-c2ccccc2CO[C@H]1CN(C)C,1.07 ± 0.06
5,COCCNC(=O)C[C@H]1CC[C@H]2[C@@H](COc3ccc(NS(=O)(=O)c4ccc(Cl)cc4)cc3C(=O)N2C)O1,1.07 ± 0.098
6,Cc1ccc(S(=O)(=O)Nc2ccc3c(c2)C(=O)N(C)[C@@H]2CC[C@@H](CC(=O)NCCc4ccncc4)O[C@H]2CO3)cc1,0.862 ± 0.073
7,O=C(C[C@H]1CC[C@@H]2[C@H](COC[C@H](O)CN2S(=O)(=O)c2ccc(F)cc2)O1)NCCN1CCCCC1,0.9656 ± 0.002
8,CCS(=O)(=O)N1CC[C@@]2(CC1)CN([C@@H](CO)c1[nH]c3cc(OC)ccc3c21)S(=O)(=O)c1ccc(C)cc1,0.934 ± 0.052
9,CNC[C@@H]1OCc2cn(nn2)CCCC(=O)N([C@H](C)CO)C[C@H]1C,1.033 ± 0.0092
10,CCCNC(=O)N1C[C@@H]2N[C@H](C1)[C@@H]2c1ccc(-c2cccc(F)c2)cc1,1.11 ± 0.034
11,Cc1ccc(S(=O)(=O)N[C@H]2CC[C@H](CC(=O)NCc3ccncn3)O[C@@H]2CO)cc1,1 ± 0.078
12,O=C(c1ccccn1)N1[C@@H](CO)[C@@H](c2ccccc2)C12CN(Cc1ccccc1F)C2,1.05 ± 0.038
13,CS(=O)(=O)N1[C@H](C#N)[C@@H](c2ccccc2-c2ccccc2F)[C@H]1CO,1.09 ± 0.064
14,O=C(c1ccccc1F)N1CC(=O)N2[C@H](CO)[C@@H](c3ccc(C#Cc4ccccc4)cc3)[C@H]2C1,0.9724 ± 0.00054
15,CCN(C[C@H]1[C@@H](c2ccccc2)[C@@H](CO)N1C(=O)COC)S(C)(=O)=O,1.04 ± 0.028
16,C[C@@H]1CCCCO[C@H](CN(C)C(=O)Cc2ccccc2)[C@@H](C)CN([C@H](C)CO)C(=O)c2cc(NS(C)(=O)=O)ccc2O1,1.118 ± 0.0086
17,CCS(=O)(=O)Nc1ccc2c(c1)C(=O)N(C)C[C@@H](OC)[C@@H](C)CN(C(=O)c1ccc3c(c1)OCO3)[C@@H](C)CO2,1.09 ± 0.067
18,CN1C(=O)c2cc(NS(=O)(=O)c3cccc(F)c3)ccc2OC[C@@H]2O[C@H](CC(=O)N3CCc4ccccc4C3)CC[C@H]21,0.969 ± 0.12
19,N#C[C@@H]1[C@H](c2ccccc2C2=CCCC2)[C@@H](CO)N1C(=O)C1CCOCC1,1.11 ± 0.029
20,CC(=O)N1CC[C@H]2[C@H](CO)Nc3ccc(-c4ccccc4)cc3[C@H]21,1.02 ± 0.068
21,CO[C@@H]1CC[C@@H]2CCOc3ccc(C#N)cc3C(=O)N(C)[C@@H](C)C(=O)N(C)C[C@H]1O2,1.1 ± 0.018
22,COC(=O)C[C@H]1CC[C@H]2[C@H](COc3ccc(NS(=O)(=O)c4ccc(C)cc4)cc3C(=O)N2C)O1,1.17 ± 0.041
